According to PubChem BioAssay (NCATS):
Several values for one entry are separate records, joined by “and”; a condition that tells them apart may be missing. Equal values may be shown once. The shares of active, inactive and inconclusive entries below differ from those in the screen. For some assays here: Potencies beside an inconclusive call are fits to weak or partial responses and may not hold up. For some assays here: A note “side channel” means that the fit belongs to a control or component signal, not to the main read-out. Activity calls are given as the source filed them. Unless noted, the call rests on the fitted dose curve; in most records, active means well fitted inhibition curve with a large enough effect; inconclusive means small, poorly fitted or top-dose-only effect, or effect the other way, or another doubt; inactive means flat fitted curve, though single readings scatter.

assay: qHTS Assay for Identification of Small Molecule Agonists for Hypoxia Response Element Signaling Pathway (AID 914; active means well fitted activation curve with a large enough effect in the signal ratio, with a control signal flat, not every such curve was filed as active; inconclusive means small, poorly fitted or top-dose-only effect, or effect the other way, or a change in a side signal; the % refers to the signal ratio; further: potency means the concentration at half of the fitted maximal effect; on activation: top concentration of the series differs between compounds; % of control where 0% means no effect); settings: ME-180 (cervical carcinoma) HRE-bla reporter, beta-lactamase ratio, CoCl2, 17 h; activation: stronger effect = higher value
In short: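 In Opti-MEM containing 0.5% dialyzed FBS and 10 mM HEPES, ME-180 HRE-bla cells received a compound titration and EC50 CoCl2. They were incubated 17 hours, then CCF4-loaded 2.5 hours at room temperature before ratio reading.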
Tags describe the fitted curve by direction and shape or compound fluorescence and quenching.

SMILES | Potency | activation
CCC(=O)OCN1C(=O)C=CC1=O | inconclusive: 3160 nM [cytotoxic, side channel, single point] | 
COCCn1c(=O)c(-c2ccc(OC)cc2)nc2cnc(Nc3ccccc3)nc21 | inconclusive: 501 nM [activator, full curve] | 
Cn1cc(-c2nc3cnc(Oc4cccc(Cl)c4)nc3n(CCC#N)c2=O)c2ccccc21 | active: 1580 nM | 
O=C(O)/C=C\c1c2ccc(=O)c(O)c-2oc2c(O)c(O)ccc12 |  | inconclusive: -33.8%
Nc1nc(-c2cccs2)cs1 |  | inactive: -9.81%
CC(C)(Oc1ccc([C@@H]2CC2(Cl)Cl)cc1)C(=O)O |  | inactive: -18.9% and inconclusive: -28.8%
O=c1cc(O)cc(/C=C\c2ccc(O)c(O)c2)o1 | inconclusive: 15800 nM [inhibitor, partial curve] | 
CN(C)c1ncc2nc(-c3cccs3)c(=O)n(CCc3ccccc3)c2n1 | inconclusive: 5010 nM [activator, single point] | 
O=C(O)c1cccc(CN2CCCCC2)c1 | inconclusive: 251 nM [cytotoxic, side channel, single point] | 
CS(=O)(=O)N1CCC2(CC1)CN(c1cccc(-c3ccccc3)c1)C2 |  | inconclusive: -28.6%
NCCNc1ncnc2ccc(Cl)cc12 |  | inconclusive: -3.47%
OC[C@@H]1O[C@@H](n2cnc3c(NC4CCCCC4)ncnc32)[C@@H](O)[C@H]1O |  | inactive: -22.9%
Cc1ccccc1CNc1ncnc2c1ncn2[C@@H]1O[C@@H](CO)[C@H](O)[C@@H]1O |  | inconclusive: -89.8%
S=C(CSc1ccccc1)Nc1cccc2ccccc12 |  | inconclusive: -19.9%
Cc1cc(SCC(=O)c2ccc(Br)cc2)cc(C)[o+]1 |  | inactive: 15.2%

assay: qHTS Assay for Identification of Small Molecule Antagonists for Thrombopoietin (TPO) Signaling Pathway (AID 918); settings: TPO-dependent cell signaling reporter, antagonist mode; activity change, negative = inhibition: at 38.5 µM (top of the series); further: nearly all actives have a fitted effect of over 60% in size
In short: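 First, Ba/F3 reporter cells expressing human TPO receptor were held overnight without IL-3. Next, compound and 26 pM TPO were added. After 24 hrs incubation at 37 C, luciferase luminescence under the Glycoprotein IIb promoter was recorded.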

SMILES | activity change, negative = inhibition
NC[C@](O)(CS(=O)(=O)O)c1ccc(Cl)cc1 | inconclusive: -17.1% [phenotype inactive]
CC(C)(Oc1ccc([C@@H]2CC2(Cl)Cl)cc1)C(=O)O | inconclusive: -12.5% [phenotype inactive]
Nc1c2c(nc3ccccc13)CCC[C@H]2O | inconclusive: -8.45% [phenotype inactive]
CO/N=C(\C(=O)N[C@@H]1C(=O)N2C(C(=O)O)=C(CSc3nc(=O)c(O)nn3C)CS[C@@H]12)c1csc(N)n1 | inconclusive: -17.4% [phenotype inactive]
C[C@@H](C[N+](C)(C)C)OC(N)=O | inconclusive: -0.411% [phenotype inactive]
